# Source: the antibiotic and cytotoxicity screens of Wong et al. (2023)
# Some of the results follow.
# Assays:
# [1] = system: HSkMC (human skeletal muscle cells); test: cytotoxicity call (relative viability < 0.9); settings: 10 µM
# [2] = system: HepG2; test: cytotoxicity call (relative viability < 0.9); settings: 10 µM
# [3] = system: S. aureus RN4220; test: growth inhibition call (relative growth <= 0.2); settings: 50 µM
SMILES,cytotoxicity call [1],cytotoxicity call [2],growth inhibition call [3]
C[C@H](CO)N1C[C@H](C)[C@@H](CN(C)Cc2ccc(Oc3ccccc3)cc2)Oc2c(NC(=O)CCC(F)(F)F)cccc2C1=O,inactive,inactive,inactive
CCCN(C)C[C@H]1OCCCC[C@H](C)Oc2ccc(NC(=O)Nc3ccc4c(c3)OCO4)cc2C(=O)N([C@@H](C)CO)C[C@@H]1C,inactive,inactive,inactive
Cc1noc(C)c1S(=O)(=O)N(C)C[C@@H]1Oc2ccc(NC(=O)Cn3cnnn3)cc2CC(=O)N([C@H](C)CO)C[C@@H]1C,inactive,inactive,inactive
CC(C)CC#Cc1cnc2c(c1)C(=O)N([C@@H](C)CO)C[C@@H](C)[C@@H](CN(C)S(=O)(=O)c1ccccc1)O2,inactive,inactive,inactive
CN1CCCN(C[C@@H]2CN(C(=O)Cn3cccn3)C[C@@H]2CO)CC1,inactive,inactive,inactive
CC=CC1=C(C(=O)O)N2C(=O)C(NC(=O)C(N)c3ccc(O)cc3)C2SC1 (stereo not drawn),inactive,inactive,inactive
CN(C)CCCNC(=O)C[C@@H]1C=C[C@H](NS(=O)(=O)c2ccccc2)[C@H](CO)O1,inactive,inactive,inactive
C[C@@H]1CN([C@H](C)CO)C(=O)CCCn2cc(nn2)CO[C@H]1CN(C)C(=O)Nc1ccc2c(c1)OCO2,inactive,inactive,inactive
CCNC(=O)[C@@H]1CCCN1C(=O)[C@H](CCCNC(=N)N)NC(=O)[C@H](CC(C)C)NC(=O)[C@@H](CC(C)C)NC(=O)[C@H](Cc1ccc(O)cc1)NC(=O)[C@H](CO)NC(=O)[C@H](Cc1c[nH]c2ccccc12)NC(=O)[C@H](Cc1cnc[nH]1)NC(=O)[C@@H]1CCC(=O)N1,inactive,inactive,inactive
C[C@@H]1CN([C@H](C)CO)C(=O)c2cc(NS(=O)(=O)c3ccc(F)cc3)ccc2O[C@@H](C)CCCCO[C@@H]1CN(C)Cc1ccccc1,inactive,inactive,inactive
C[C@H](CO)N1C[C@H](C)[C@H](CN(C)S(=O)(=O)c2cn(C)cn2)Oc2c(NC(=O)C3CC3)cccc2C1=O,inactive,inactive,inactive
Cc1ccccc1C(=O)Nc1ccc(C(=O)N2CCCC(O)c3cc(Cl)ccc32)c(C)c1 (stereo not drawn),inactive,inactive,inactive
C[C@H]1CN([C@@H](C)CO)C(=O)Cc2cc(NC(=O)CCCCCC(=O)Nc3ccccc3N)ccc2O[C@@H]1CN(C)C(=O)Nc1ccccc1,inactive,inactive,inactive
Cc1noc(C)c1S(=O)(=O)Nc1ccc2c(c1)C(=O)N([C@@H](C)CO)C[C@@H](C)[C@@H](CN(C)Cc1ccncc1)O2,inactive,inactive,inactive
CCCc1c(SCCCOc2ccc(C(C)=O)c(OCCCC(=O)O)c2CCC)ccc(C(C)=O)c1O,inactive,inactive,active
O=C(O)c1ccc(-n2nc(-c3ccccc3O)nc2-c2ccccc2O)cc1,inactive,active,inactive

SMILES,cytotoxicity call [1],cytotoxicity call [2],growth inhibition call [3]
NCC[C@@H]1CC[C@H](NC(=O)C2CC2)[C@@H](CO)O1,inactive,inactive,inactive
C[C@H]1CCCCO[C@@H](CN(C)Cc2ccc(C(F)(F)F)cc2)[C@@H](C)CN([C@@H](C)CO)C(=O)c2cc(NS(=O)(=O)c3cccs3)ccc2O1,inactive,inactive,inactive
COc1cc(NC(=O)CCN2CCC(OC(=O)Nc3ccccc3-c3ccccc3)CC2)c(Cl)cc1CNC[C@H](O)c1ccc(O)c2nc(O)ccc12,inactive,active,inactive
Cn1cnc(S(=O)(=O)N[C@H]2C=C[C@H](CC(=O)NCC3CC3)O[C@H]2CO)c1,inactive,inactive,inactive
C[C@H]1CN([C@@H](C)CO)C(=O)c2cccc(NC(=O)Nc3cccc4ccccc34)c2O[C@H]1CN(C)Cc1ccc(C(F)(F)F)cc1,inactive,inactive,inactive
CN(C)Cc1cn(CC[C@H]2CC[C@@H](NC(=O)Cc3cccnc3)[C@@H](CO)O2)nn1,inactive,inactive,inactive
C[C@@H]1CN([C@@H](C)CO)C(=O)c2cccc(NC(=O)C3CC3)c2O[C@@H]1CN(C)S(=O)(=O)c1ccccc1,inactive,inactive,inactive
C[C@H]1[C@H]2[C@H](Cc3ccccc3)NC(=O)[C@]23C(=O)N[C@H](Cc2ccccc2)C(=O)N2CCC[C@H]2C(=O)NC/C=C\C/C=C/[C@@H]3[C@@H]2O[C@]12C,inactive,inactive,inactive
COc1ccccc1OCCNCC(O)COc1cccc2[nH]c3ccccc3c12.O=P(O)(O)O (stereo not drawn),inactive,active,inactive
C[C@H]1CN([C@@H](C)CO)S(=O)(=O)c2ccc(C#CCN(C)C)cc2O[C@@H]1CN(C)Cc1ccccn1,inactive,inactive,inactive
C[C@H]1CN([C@@H](C)CO)C(=O)CCCn2nncc2CO[C@H]1CN(C)S(=O)(=O)c1ccc(Cl)cc1,inactive,active,inactive
C[C@@H]1CN([C@@H](C)CO)C(=O)c2cccc(NC(=O)c3cnccn3)c2O[C@@H]1CN(C)S(C)(=O)=O,inactive,inactive,inactive
COc1cccc(S(=O)(=O)Nc2ccc3c(c2)[C@H]2C[C@@H](CC(=O)NCCc4ccccc4)O[C@@H](CO)[C@H]2O3)c1,inactive,inactive,inactive
O=c1[nH]c2ccc(F)cc2[nH]1,inactive,inactive,inactive
C[C@H](CO)N1C[C@H](C)[C@H](CN(C)C(=O)NC2CCCCC2)Oc2c(NC(=O)C3CCOCC3)cccc2C1=O,inactive,inactive,inactive
